According to PubChem BioAssay AID1347165 (National Center for Advancing Translational Sciences (NCATS), 2019):
Screen size: about 220,000 compounds; about 5,700 (2.6%) were called active. This list was built around the results that the source calls inconclusive (neither active nor inactive); the mix of calls is not that of the screen. Calls come from the whole dose curve; as a rule, active = well fitted inhibition curve with a large enough effect; inconclusive = small, poorly fitted or top-dose-only effect; inactive = no such curve, though single readings can be large or run the other way. Potencies beside an inconclusive call are fits to weak or partial responses and may not hold up.

molecular target: Lysine-specific demethylase 5B (Homo sapiens) (UniProt Q9UGL1); assay: Primary screen for KDM5B Histone Demethylases FDH-coupled qHTS; conditions: FDH-coupled NADH fluorescence (FDH is formaldehyde dehydrogenase); activity change, negative = inhibition: at 57.7 µM (top of the series) unless noted; note: nearly all actives have a fitted effect of over 70% in size; for activity change, negative = inhibition: 0% is about no effect
Sequence of UniProt Q9UGL1 (Q9UGL1 whole entry, looked up): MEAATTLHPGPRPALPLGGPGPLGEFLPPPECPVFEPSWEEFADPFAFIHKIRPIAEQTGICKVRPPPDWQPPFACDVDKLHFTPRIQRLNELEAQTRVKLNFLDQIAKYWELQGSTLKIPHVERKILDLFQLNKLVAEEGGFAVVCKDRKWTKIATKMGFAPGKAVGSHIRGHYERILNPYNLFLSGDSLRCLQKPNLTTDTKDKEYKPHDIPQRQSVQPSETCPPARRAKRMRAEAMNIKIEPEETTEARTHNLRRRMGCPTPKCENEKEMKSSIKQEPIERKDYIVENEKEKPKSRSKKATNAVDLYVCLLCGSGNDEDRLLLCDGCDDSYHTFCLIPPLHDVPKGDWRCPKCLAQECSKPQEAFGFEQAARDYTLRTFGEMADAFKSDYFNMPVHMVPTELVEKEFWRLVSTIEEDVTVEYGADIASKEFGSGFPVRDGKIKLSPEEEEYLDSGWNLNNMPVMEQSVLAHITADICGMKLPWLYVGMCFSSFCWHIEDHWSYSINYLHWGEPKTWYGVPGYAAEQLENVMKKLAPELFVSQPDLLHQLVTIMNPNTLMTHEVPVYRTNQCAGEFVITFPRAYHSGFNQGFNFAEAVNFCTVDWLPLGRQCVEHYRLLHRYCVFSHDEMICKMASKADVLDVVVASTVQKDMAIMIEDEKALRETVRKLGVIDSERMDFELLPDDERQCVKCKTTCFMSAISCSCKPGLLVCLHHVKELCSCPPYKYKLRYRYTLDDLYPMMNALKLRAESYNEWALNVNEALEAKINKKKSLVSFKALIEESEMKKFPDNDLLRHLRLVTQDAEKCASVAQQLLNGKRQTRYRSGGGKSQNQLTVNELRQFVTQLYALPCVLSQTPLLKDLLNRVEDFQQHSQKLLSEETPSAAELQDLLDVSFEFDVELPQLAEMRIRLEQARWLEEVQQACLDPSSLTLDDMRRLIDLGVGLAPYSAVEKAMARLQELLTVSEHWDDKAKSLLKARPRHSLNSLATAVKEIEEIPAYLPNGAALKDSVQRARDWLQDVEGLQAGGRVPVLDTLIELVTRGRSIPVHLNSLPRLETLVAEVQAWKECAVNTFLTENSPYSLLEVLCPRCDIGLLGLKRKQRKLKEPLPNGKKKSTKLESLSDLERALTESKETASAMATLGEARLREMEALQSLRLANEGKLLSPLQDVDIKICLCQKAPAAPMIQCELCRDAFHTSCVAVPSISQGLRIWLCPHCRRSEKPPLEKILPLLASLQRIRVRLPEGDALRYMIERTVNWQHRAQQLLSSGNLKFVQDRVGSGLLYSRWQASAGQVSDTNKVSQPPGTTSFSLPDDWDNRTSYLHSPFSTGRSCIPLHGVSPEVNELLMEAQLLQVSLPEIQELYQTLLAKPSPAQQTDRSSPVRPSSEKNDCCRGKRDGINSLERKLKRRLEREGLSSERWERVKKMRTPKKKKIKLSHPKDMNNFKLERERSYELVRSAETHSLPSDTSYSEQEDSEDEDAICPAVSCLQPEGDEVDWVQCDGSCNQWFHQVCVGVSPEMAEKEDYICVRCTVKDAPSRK
Summary of the method: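 KDM5BΔAP (200 nM final) in 50 mM HEPES pH 7.5, 0.01% Tween-20 was preincubated 10 min at RT with compound over a concentration range. Substrate mix (H3K4me3 12.5 µM, α-KG 25 µM, Fe²⁺, ascorbate, NAD⁺, FDH) was added, and NADH fluorescence change over 30 min gave dose-response curves.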
Potency is the fitted concentration of half-maximal effect; tags give direction and shape of the fitted curve.

Row | Compound | Potency | activity change, negative = inhibition
1 | CCN(CC(=O)NCc1cccs1)C(=O)c1cc(=O)[nH]c2ccccc12 | inconclusive: 28.2 µM [inhibitor, single point] | –
2 | COc1ccccc1CC(=O)NCc1nnc2ccc(-c3ccc(C)c(C)c3)nn12 | active: 31.6 µM | –
3 | Cc1nn(-c2ccc(C(F)(F)F)cc2)c(C)c1[C@@H]1C=C[C@@H](NC(=O)Nc2cccc(C#N)c2)C1 | inconclusive: 20 µM [inhibitor, partial curve] | –
4 | CNc1nc2c(s1)C(c1ccccc1F)CC(=O)N2 (stereo not given) | active: 35.5 µM | –
5 | Cc1ccc(C(=O)N2CC[C@H](CO)[C@H](NC(=O)C3CC3)C2)cn1 | – | inactive: -23.3%
6 | COc1ccc(O)c(CN2CCCC(Nc3ccc(F)cc3)C2)c1 (stereo not given) | inconclusive: 28.2 µM [inhibitor, partial curve, poor fit] | –
7 | O=C(Cn1ccn2nc(-c3ccccc3)c(CO)c2c1=O)Nc1ccc(F)c(Cl)c1 | inconclusive: 25.1 µM [inhibitor, partial curve, poor fit] | –
8 | Cc1cccc(NC(=O)CS(=O)(=O)c2nc(-c3ccccc3)cn2-c2cccc(Cl)c2)c1C | inconclusive: 28.2 µM [inhibitor, partial curve, poor fit] | –
9 | COCCNc1ccc2nnc(-c3ccccn3)n2n1 | inconclusive: 31.6 µM [inhibitor, partial curve, poor fit] | –
10 | COC(=O)c1ccc(NC2=C(C(N)=O)S(=O)(=O)c3ccccc32)cc1 | inconclusive: 20 µM [inhibitor, partial curve, poor fit] | –
11 | COc1ccc(CN2CCC(O)(c3csc(CN4CCc5ccccc5C4)n3)CC2)cc1 | inconclusive: 22.4 µM [inhibitor, single point] | –
12 | CCCc1cc(=O)oc2cc(OC(C)C(=O)Nc3cc(C)on3)ccc12 (stereo not given) | inconclusive: 22.4 µM [inhibitor, partial curve, poor fit] | –
13 | CN(C)S(=O)(=O)c1ccc(C(=O)NC2CC(=O)N(c3ccc4c(c3)OCCO4)C2)cc1 (stereo not given) | inconclusive: 50.1 µM [inhibitor, single point] | –
14 | CCOC(=O)c1cc(-c2ccc(C)cc2)n(CCC(=O)Nc2ccc(C(C)C)cc2)c1C | inconclusive: 17.8 µM [inhibitor, single point] | –
15 | CCCCCC(=O)Nc1ncc2c(n1)CC(c1cccs1)CC2=O (stereo not given) | – | inactive: -0.897%
16 | O=C1Nc2ccccc2CN(Cc2ccccc2)C12CCNC2 (stereo not given) | inconclusive: 89.1 µM [inhibitor, partial curve] | –
17 | O=C(Nc1ccccc1)c1cc2n(n1)CC(c1ccc(Cl)cc1)OC2 (stereo not given) | inconclusive: 22.4 µM [inhibitor, single point] | –
18 | CC(=O)N1CCCc2cc(S(=O)(=O)N(C)CC(=O)Nc3cccc(C)c3C)ccc21 | – | inconclusive: -43% [inhibitor]
19 | CCCS(=O)(=O)N1CCCCC1c1nc(-c2cnccn2)n[nH]1 (stereo not given) | inconclusive: 11.2 µM [inhibitor, partial curve, poor fit] | –
20 | COCCn1c(-c2ccc(OC)cc2)c(-c2ccc(OC)cc2)oc1=O | inconclusive: 17.8 µM [inhibitor, partial curve, poor fit] | –
21 | Cc1cccc2ncc(C(=O)N3CCC4(CCNC(=O)CC4)CC3)c(=O)n12 | active: 22.4 µM | –
22 | Cc1csc(NC(=O)CCc2ncc(-c3ccc(F)cc3F)o2)n1 | – | inactive: 20.9%

Row | Compound | Potency | activity change, negative = inhibition
23 | Cn1nc(C(=O)N2C[C@@H](Oc3cccnc3)C[C@H]2C(=O)N2CCOCC2)c2ccccc21 | – | inactive: -24.1%
24 | O=C(c1cccc(Cl)c1)N1CCC2(CC1)CC(=O)N(c1ccccc1)c1ccccc1O2 | – | inactive: -18.9%
25 | CCCCN1CC(c2nc3ccccc3n2CCCCOc2ccc(C)c(C)c2)CC1=O (stereo not given) | inconclusive: 5.62 µM [inhibitor, partial curve, poor fit] | –
26 | CN(C)CCNC(=O)c1nc2nc(-c3ccccc3)c(-c3ccccc3F)cc2n1C | – | inactive: -6090% [at 86.2 µM]
27 | COc1ccc(OC)c(NS(=O)(=O)c2ccc3[nH]c4c(c3c2)CCCCC4)c1 | inconclusive: 17.8 µM [inhibitor, partial curve, poor fit] | –
28 | Cc1ccc(-c2cc(C(=O)Nc3ccc(S(=O)(=O)N4CCCCC4C)cc3)no2)cc1 (stereo not given) | – | inactive: 10.6%
29 | CC(C)Cc1nc2oc3c(Cl)ncnc3c2c2c1CCCC2 | inconclusive: 28.2 µM [inhibitor, single point] | –
30 | COc1ccc(C)cc1NC(=O)C1CCCN(S(=O)(=O)c2ccc3[nH]c(=O)ccc3c2)C1 (stereo not given) | inconclusive: 31.6 µM [inhibitor, single point] | –
31 | CC(C)(C)N1Cc2nnn(Cc3ccccc3)c2-c2cc(N3CCCC3)ccc2S1(=O)=O | inconclusive: 1.78 µM [inhibitor, partial curve, poor fit] | –
32 | COc1ccc(-c2cn(-c3ccc(C)c(C)c3)c(=S)[nH]2)cc1OC | inconclusive: 22.4 µM [inhibitor, single point] | –
33 | CCC(=O)N(C1CCOCC1)C1CCN(S(=O)(=O)c2ccccc2Cl)CC1 | – | inactive: 6.96%
34 | C=C(C)CC(NC(C)c1ccccc1)c1ccco1 (stereo not given) | inconclusive: 31.6 µM [inhibitor, partial curve, poor fit] | –
35 | COc1cccc(CN2CCCCCCN(C)C(=O)[C@@H]3CCC[C@@H]32)n1 | – | inactive: -16.3%
36 | Cc1c(C(=O)Nc2nccs2)nnn1-c1cccc(C(F)(F)F)c1 | – | inactive: 9.07%
37 | CCOC(=O)c1cc(-c2ccccc2)nc2ccc(C)cc12 | inconclusive: 28.2 µM [inhibitor, partial curve, poor fit] | –
38 | Cc1ccccc1CN(C)C(=O)CN1CCC(c2nc3ccccc3s2)CC1 | inconclusive: 25.1 µM [inhibitor, single point] | –
39 | CCOC(=O)c1cnc2ccccc2c1N1CCC(C(N)=O)CC1 | – | inactive: -6.47%
40 | CC1=C(c2ccc(C(C)C)cc2)S(=O)(=O)NC1=NCc1ccccc1Br | inconclusive: 28.2 µM [inhibitor, partial curve, poor fit] | –
41 | COC(=O)Cn1c(=O)c2c(nc(-n3nc(C)cc3C)n2CCc2ccccc2)n(C)c1=O | – | inactive: -0.0306%
42 | CCOC(=O)c1c(C)oc2ccc(N(C(=O)c3ccncc3)S(=O)(=O)c3ccc(Br)cc3)cc12 | inconclusive: 14.1 µM [inhibitor, partial curve, poor fit] | –
43 | COc1ccccc1CN1CC[C@H](c2nc3ccc(C(F)(F)F)cc3[nH]2)C1 | inconclusive: 50.1 µM [inhibitor, partial curve, poor fit] | –
44 | Cc1ccc(C(c2ccc([N+](=O)[O-])cc2)c2ccc(C)s2)s1 | – | inactive: 15.9%

Row | Compound | Potency | activity change, negative = inhibition
45 | COCCNC(=O)c1cc(-c2ccc(Cl)cc2)nc2ccccc12 | inconclusive: 25.1 µM [inhibitor, partial curve, poor fit] | –
46 | O=C(N/N=C/c1cc(Br)ccc1OC(=O)c1ccc(Br)cc1)c1ccncc1 | inconclusive: 39.8 µM [inhibitor, partial curve, poor fit] | –
47 | Cc1csc2nc(CN3CCN(CC(=O)N(C)C)CC3)cc(=O)n12 | inconclusive: 31.6 µM [inhibitor, partial curve, poor fit] | –
48 | C=CCO[C@@H]1C[C@H]2C(=O)N3CC[C@H](NC(=O)[C@@H](O)c4ccccc4)C[C@H]3C(=O)N2C1 | inconclusive: 39.8 µM [inhibitor, single point] | –
49 | C=CCNC(=O)NC(=O)CN(C)Cc1ccc(-c2ccc(Br)cc2)o1 | inconclusive: 28.2 µM [inhibitor, single point] | –
50 | Cc1c(C(=O)N2CCC3(CC2)Nc2ccccc2NC3=O)cnc2ccnn12 | inconclusive: 14.1 µM [inhibitor, partial curve] | –
51 | N#Cc1ccccc1CN1CCN(c2nccc(CCC(F)(F)F)n2)CC1 | – | inactive: -17.4%
52 | Cc1ccc(NC(=O)CN2C(=O)CCn3nc(-c4cccn4C)cc32)cc1 | inconclusive: 28.2 µM [inhibitor, single point] | –
53 | CCc1cccc2c(C(=O)O)cc(-c3cc(C)ccc3C)nc12 | – | inactive: 1.35%
54 | COCCCNc1nc2c(S(=O)(=O)c3ccc(C)c(C)c3)nnn2c2ccc(Cl)cc12 | – | inactive: -182%
55 | CC1(c2ccccc2)N(Cc2ccc(O)cc2)C(=O)OC12CCN(Cc1c[nH]c3ccccc13)CC2 (stereo not given) | inconclusive: 39.8 µM [inhibitor, partial curve, poor fit] | –
56 | O=C(Nc1ccc(Cl)cc1Cl)C1CCCN(c2ncnc3nc[nH]c23)C1 (stereo not given) | – | inactive: -7.09%
57 | CCCC1=Nc2cc(C(=O)NCCc3ccc(OC)cc3OC)ccc2Sc2ccccc21 | inconclusive: 2 µM [inhibitor, full curve, poor fit] | –
58 | Cc1ccc2oc(-c3cc(NC(=O)c4ccco4)ccc3Cl)nc2c1 | inconclusive: 2.24 µM [inhibitor, partial curve, poor fit] | –
59 | O=C(c1n[nH]c2ccccc12)N1CC(Oc2ccccc2-c2nc(-c3ccccc3)no2)C1 | inconclusive: 12.6 µM [inhibitor, partial curve, poor fit] | –
60 | O=C(c1noc(-c2ccc(F)cc2)n1)N1CCN(c2ccccc2F)CC1 | active: 31.6 µM | –
61 | COc1cccc(CN2CCC3(CC2)NCCc2c3[nH]c3ccccc23)c1 | – | inactive: -6.16%
62 | CCS(=O)(=O)N1CCc2cc(C(=O)NCc3ccccc3)ccc21 | inconclusive: 28.2 µM [inhibitor, single point] | –
63 | COc1ccc(-c2ccc3c(n2)CN(CCOc2ccccc2)C(=O)CO3)cc1F | inconclusive: 39.8 µM [inhibitor, partial curve, poor fit] | –
64 | COc1ccc(-c2cn3nc(C)c(C)nc3n2)cc1OC | inconclusive: 25.1 µM [inhibitor, partial curve, poor fit] | –
65 | CCc1ccccc1S(=O)(=O)N1CCN(C2CCN(CCC(C)C)C2=O)CC1 (stereo not given) | – | inactive: -1.1%
